# Experimental data as given in paper PMC4336329 (PLoS ONE, 2015).
# Out of some 310,000 compounds screened, about 14,000 (4.5%) showed an effect of 50% or more. Effects have a minus sign here. This is one part of the list.
# Target: human ether-à-go-go-related gene (hERG) potassium channel (human, UniProt Q12809)
# Experiment: primary screen, population patch clamp on CHO cells stably expressing hERG
# 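Further: peak tail current of the secondary pulse compared with the same well before compound.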
# Sequence of human ether-à-go-go-related gene (hERG) potassium channel (Q12809 whole entry, looked up): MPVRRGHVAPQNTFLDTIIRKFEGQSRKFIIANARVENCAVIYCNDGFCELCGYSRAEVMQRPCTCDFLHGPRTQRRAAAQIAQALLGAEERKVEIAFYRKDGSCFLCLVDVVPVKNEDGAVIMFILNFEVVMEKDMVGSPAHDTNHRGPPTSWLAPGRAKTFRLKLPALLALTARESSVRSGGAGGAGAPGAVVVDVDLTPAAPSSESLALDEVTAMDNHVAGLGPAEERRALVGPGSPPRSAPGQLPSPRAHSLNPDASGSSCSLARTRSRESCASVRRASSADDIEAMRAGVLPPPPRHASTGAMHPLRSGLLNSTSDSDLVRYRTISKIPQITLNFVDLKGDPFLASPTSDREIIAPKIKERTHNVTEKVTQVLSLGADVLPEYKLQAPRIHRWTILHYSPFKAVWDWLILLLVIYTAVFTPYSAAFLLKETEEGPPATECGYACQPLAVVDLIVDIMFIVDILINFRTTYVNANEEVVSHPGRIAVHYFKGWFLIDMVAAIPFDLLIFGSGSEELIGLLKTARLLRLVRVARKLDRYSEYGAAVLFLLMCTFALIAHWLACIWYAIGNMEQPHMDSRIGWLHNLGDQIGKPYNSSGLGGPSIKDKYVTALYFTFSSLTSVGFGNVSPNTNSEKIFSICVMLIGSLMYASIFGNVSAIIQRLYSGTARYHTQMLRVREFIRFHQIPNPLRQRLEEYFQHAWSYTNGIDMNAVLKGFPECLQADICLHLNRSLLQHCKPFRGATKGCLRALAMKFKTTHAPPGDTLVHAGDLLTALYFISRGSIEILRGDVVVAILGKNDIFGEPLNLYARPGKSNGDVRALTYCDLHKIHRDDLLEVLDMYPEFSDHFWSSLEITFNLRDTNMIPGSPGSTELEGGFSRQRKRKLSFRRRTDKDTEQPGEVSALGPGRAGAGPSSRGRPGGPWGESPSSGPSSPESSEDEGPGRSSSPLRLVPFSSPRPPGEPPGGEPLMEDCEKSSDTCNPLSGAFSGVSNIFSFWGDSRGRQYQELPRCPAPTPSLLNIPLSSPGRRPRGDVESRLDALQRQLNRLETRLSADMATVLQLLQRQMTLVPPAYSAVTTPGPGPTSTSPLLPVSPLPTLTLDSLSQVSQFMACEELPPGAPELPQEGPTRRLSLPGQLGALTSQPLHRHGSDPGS
row,SMILES,"hERG current change (%, negative = inhibition) at 10uM [%]"
1,CN(C(=O)CN1C(=O)S/C(=C\c2cccc(Cl)c2)C1=O)C1CCS(=O)(=O)C1 (stereo not shown),-25.8
2,Cc1cccc(NC(=O)Nc2ccc(C#N)cc2)n1,8.42
3,COC(=O)c1cn(NC(=O)c2ccc(OC)c(OC)c2)c(=O)c2ccccc12,-10.9
4,CCOCCCNC(=O)c1ccc(CS(=O)(=O)c2cccc(C(F)(F)F)c2)o1,6.78
5,COc1ccc(C(=O)NCCOc2ccccc2)cc1S(=O)(=O)N1CCOCC1,-32.3
6,Cc1cccn2c(=O)c3cc(S(=O)(=O)c4ccccc4)c(=N)n(Cc4ccco4)c3nc12,-0.654
7,N#CCC(=O)N1CCN(C=O)CC1,7.8
8,COC(=O)/C(=C\Nc1ccc(OC)cc1)NC(=O)c1ccc(Cl)cc1Cl,-17.7
9,O=C(CCCCl)NC(=S)Nc1cc(C(F)(F)F)ccc1N1CCOCC1,-47.6
10,COc1ccc(S(=O)(=O)NCCSc2ccc(C)cc2)cc1OC,-23.2
11,CCOC(=O)C1(C(F)(F)F)N=C(c2cccnc2)OC(N2CCCCC2)=N1 (stereo not shown),6.89
12,O=C(NC1CC2CCC1C2)c1ccc(CN2CCOCC2)cc1 (stereo not shown),6.27
13,O=c1c2c3c(sc2n2cnnc2n1CCc1ccccc1)CCCC3,-20.5
14,O=C1C=C(c2cccc(O)c2)CCC1,9.21
15,C#CC(CC)(CC)NC(=S)Nc1ccc(S(N)(=O)=O)cc1,-0.342
16,O=C(CC(=O)c1ccccc1)Nc1cc([N+](=O)[O-])ccc1Cl,8.83
17,O=C1NCCN(Cc2cccc(Oc3ccccc3)c2)C1CC(=O)N1CCCCC1 (stereo not shown),-0.741
18,COC(=O)CSc1nc(C)c2c(n1)CCCC2,-17.4
19,O=C1NC(=O)N(Cc2ccccc2)C(=O)/C1=C/c1cnc(-c2ccccc2)nc1,15.3
20,Cc1cccc(-n2[nH]c3c4c(ccc3c2=O)C(=O)c2ccccc2C4=O)c1,4.95
21,O=S(=O)(NCC1CCCO1)c1cccc2nsnc12 (stereo not shown),6.69
22,COc1ccc(NC(=S)N2CCOCC2)c(OC)c1,10.7

row,SMILES,"hERG current change (%, negative = inhibition) at 10uM [%]"
1,Cn1c(SCC(=O)N2CCN(S(=O)(=O)c3ccccc3)CC2)nc2ccccc21,-13.8
2,CC(=O)NC(Cc1ccc(F)cc1)C(=O)NC1CCN(c2ncccc2[N+](=O)[O-])CC1 (stereo not shown),11.1
3,CCN(CC)C(=O)c1ccc(NC(=O)COC(=O)c2ccc(Cl)s2)cc1,-18.2
4,[N-]=[N+]=NC[C@H](Cc1ccccc1)N1CC[C@@H](NC(=O)OCc2ccccc2)CCC1=O,-52.5
5,FC(F)(F)c1cccc(OCC2CNC(=S)O2)c1 (stereo not shown),0.125
6,CC(C)OCCCNC(=O)CCC(=O)NNc1nc2ccccc2c2nc(-c3ccccc3)nn12,-31.4
7,Cc1cccc(C)c1NC(=O)CCCCCNS(=O)(=O)c1ccccc1,5.08
8,COc1cc(C(=O)OCCc2c(C)nc3nc[nH]n3c2=O)cc(OC)c1OC,27.6
9,CCN(CC)S(=O)(=O)c1cccc(C(=O)Nc2cc3oc4ccccc4c3cc2OC)c1,-1.19
10,COc1ccc(NC(C)=O)cc1NC(C)C(=O)Nc1cccc(S(=O)(=O)N2CCOCC2)c1 (stereo not shown),13.4
11,O=C(Cc1ccccc1)NCC(=O)OCC(=O)c1ccc(Cl)cc1,11.3
12,O=C(COC(=O)c1cccc(S(=O)(=O)N2CCOCC2)c1)Nc1nc(-c2ccccc2Cl)cs1,-14.5
13,CNCC(=O)Nc1ccc(OC(F)(F)F)cc1.Cl,-3.92
14,Oc1oc(-c2ccccc2)nc1C=NCc1ccccc1,6.78
15,c1ccc(P(c2ccccn2)c2ccccn2)cc1,9.53
16,CC(=O)c1c(C)oc2ccc(OCc3ccccc3)cc12,0.181
17,CCC/C=C(\CCC)C(NC(=O)c1ccc(C(=O)OC)cc1)c1ccc(C(=O)OC)cc1 (stereo not shown),15.3
18,Cc1c(C(=O)N2CCOCC2)oc2c1C(=O)CC(C)(C)C2,-1.59
19,O=C(c1csc2c1CCCC2)N1CCN(c2ncccn2)CC1,-25.1
20,CSc1ccccc1C(=O)N(CC1CCCO1)c1c(N)n(Cc2ccccc2)c(=O)[nH]c1=O (stereo not shown),-1.39
21,O=C(NC1CCCC1)C(c1ccccc1)N(Cc1ccc2c(c1)OCO2)C(=O)Cc1cccs1 (stereo not shown),6.01
22,O=C(CSc1ncnc2ccccc12)NCCc1ccccc1,3.01

row,SMILES,"hERG current change (%, negative = inhibition) at 10uM [%]"
1,CCN(c1ccc(NC(=O)c2ccc(Cl)nc2)cc1)C(C)C,-1.54
2,CCN(CC)S(=O)(=O)c1cccc(C(=O)OCC(=O)NCCN2C(=O)CSC2=O)c1,-16.8
3,O=c1[nH]cnc2sc3c(c12)CN(Cc1ccccc1)CC3,5.56
4,CC(Oc1ccc(Br)cc1)C(=O)Nc1nc(-c2ccccn2)cs1 (stereo not shown),-5.7
5,Fc1cccc(Nc2nc(-c3ccncc3)nc3ccccc23)c1,15.4
6,O=C(O)CCCN1C(=O)c2cccc3cccc(c23)C1=O,2.49
7,Cc1ccc(NC(=O)c2sc(=S)n(-c3cc(C)ccc3F)c2N)cc1,19.5
8,CCOc1ccccc1NC(=S)N(CCOC)C1CCN(C(C)=O)CC1,-20.2
9,C(#CC12CC3CC(CC(C3)C1)C2)CN1CCOCC1,38.9
10,N#CCCCN1C(=O)C(O)(CC(=O)c2ccc3c(c2)OCCO3)c2ccccc21 (stereo not shown),10.3
11,CCOc1ccc(NC(=O)CSc2nc3c(c(=O)n2-c2ccccc2OC)SCC3)cc1,5.04
12,CN(CC(=O)NC1CCN(Cc2ccccc2)CC1)S(=O)(=O)c1ccc2c(c1)c(=O)n(C)c(=O)n2C,-24.1
13,Cn1c(Cn2nnc3ccccc32)nnc1SCC(=O)Nc1ccc2c(c1)OCO2,-5.62
14,CC(C)OC(=O)c1ccc(COC(=O)CNC(=O)c2ccco2)cc1,20.6
15,COc1ccc(C2(O)CCN(C(=O)NC3CCCCC3)CC2)cc1,0.0341
16,O=C(C1=C(Nc2ccccc2)c2ccccc2S(=O)(=O)N1)c1ccccc1,15.5
17,CN(C)S(=O)(=O)c1cc(NC(=O)COC(=O)Cc2ccc(Br)cc2)ccc1Cl,-1.29
18,Cc1ccc(NC(=O)CC2OC(=O)c3ccccc32)cc1S(=O)(=O)N1CCCCCC1 (stereo not shown),-17.9
19,Cc1snc(SCc2ccc(Cl)cc2)c1C#N,17.6
20,O.O=C(O)[C@@H]1[C@H]2C[C@H]3c4[nH]c5ccccc5c4CCN3C[C@@H]2CC[C@@H]1O,9.73
21,Cc1onc(-c2ccccc2)c1C(=O)Nc1cc(C(F)(F)F)ccc1N1CCOCC1,-20.6
22,O=C(Nc1ccc(C(F)(F)F)cc1Cl)c1ccc(Cn2cc(Br)cn2)o1,-9.82

row,SMILES,"hERG current change (%, negative = inhibition) at 10uM [%]"
1,Cc1ccc(C(=O)OCC(=O)NCc2ccc(Cl)cc2Cl)o1,7.93
2,CN(Cc1ccc(Cl)s1)C(=O)CSc1nnc(C2CC2)n1C1CC1,-20.8
3,CSc1ccccc1OCc1cc(C(=O)N(C)Cc2ccncn2)no1,12.9
4,Cc1ccc(S(=O)(=O)CCC(=O)Nc2nnc(-c3ccccc3S(C)(=O)=O)o2)cc1,7.23
5,COc1ccccc1NC1=C(Cl)C(=O)N(C2CCCCC2)C1=O,2.89
6,CCN1CCN(c2nc([N+](=O)[O-])nn2C)CC1,5.29
7,CCN1CCN(c2nc(-c3ccccn3)nc3ccccc23)CC1,-56.3
8,CC(=O)Nc1ccc(Nc2nc3ccccc3n3cnnc23)cc1,-3.48
9,Cc1ccc(-n2nc(C)c3c2OC(N)=C(C#N)C3c2cccs2)cc1 (stereo not shown),18
10,Cl.OC(COc1ccc(Br)cc1)CN1CCOCC1 (stereo not shown),-0.178
11,CC(C)c1cc(C(=O)N2CCCC(CCC(=O)NCc3ccccc3F)C2)n(C)n1 (stereo not shown),10.6
12,CCn1c(SCC(N)=O)nnc1-c1ccc(OC)c(OC)c1,16.5
13,COCCCNC(=O)c1cccc(NC(=O)c2ccccc2)c1,11.9
14,Cc1ccc(S(=O)(=O)N[C@H](C(=O)N2CCC(C(=O)NCC(=O)O)CC2)C(C)C)cc1,22.3
15,O=C(Nc1nnc(-c2ccc(Cl)cc2)o1)Nc1ccccc1Cl,6.43
16,Cc1cccc(Oc2ccc(Cl)cc2N)c1,12.4
17,O=C(CCS(=O)(=O)c1ccccc1)Nc1nc2cc3c(cc2s1)OCCO3,1.79
18,CCCCn1c(C(C)NC(=O)CCC)nc2ccccc21 (stereo not shown),10.3
19,CCCCCNC(=O)c1ccc2c(=O)n(CCCOCC)c(=S)[nH]c2c1,9.13
20,Cc1cc(OCCOCCN2CCCC2)ccc1C(C)C,-53.9
21,CCOC(=O)c1cc2c(ccn2C)n1CC(=O)N(Cc1ccccc1)c1ccc(F)cc1,2.13
22,CS(=O)(=O)N1CCC(C(=O)Nc2cccc(Cl)c2Cl)CC1,12.1
